These are yes or no findings as the source states them, for the method shown. For part of these data: Binding seen in cells or lysates may run through a third protein. Some results given as binding are weak or reduced against the parent protein; the word gives no strength. For part of these data: Tags and fused reporters may be left off the sequences shown.
How the values were obtained:
[1] = target: GST-YWHAE (not stated (human or mouse cDNA cloned)) (UniProt P62258); assay: pull-down; purified GST-YWHAE or GST-YWHAZ immobilised on glutathione sepharose 4B beads, purified SOD1-His (200 μg) at ratios 2:1, 1:1 and 1:2, 4 °C, 1 h, 20 mM Tris, 300 mM NaCl, 2 mM β-mercaptoethanol, 1 mM PMSF, pH 8.0; SDS-PAGE with Coomassie blue or Western blot; both purified
[2] = target: GST-YWHAZ (not stated (human or mouse cDNA cloned)) (UniProt P63104); assay: as above
[3] = target: T1, ATPG tagged with F2 at the C-terminus (negative control protein) (UniProt P36542); assay: split reporter; protein complementation assay (PCA) with YFP fragments F1 (SOD1, prey) and F2 (candidates, bait) in HEK293T cells, 100 ng of each vector, read 72 h after transfection at excitation 512 nm and emission 529 nm or by confocal imaging; fold change normalised to the vector controls in the same orientation; some cells treated with diquat, TBHP, NAC or ebselen (50 μM)
T1 sequence: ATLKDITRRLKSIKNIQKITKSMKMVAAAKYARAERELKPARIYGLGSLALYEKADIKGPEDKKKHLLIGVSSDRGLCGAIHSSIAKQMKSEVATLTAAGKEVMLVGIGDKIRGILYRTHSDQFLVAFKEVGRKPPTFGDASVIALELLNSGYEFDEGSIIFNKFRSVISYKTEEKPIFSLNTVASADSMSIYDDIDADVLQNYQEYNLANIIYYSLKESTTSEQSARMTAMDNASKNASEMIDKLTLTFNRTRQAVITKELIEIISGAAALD

Chains of the proteins cited; added tags and fusions are not shown. Lines headed by an entry give the natural chain unless they say otherwise; changes in a name come on top.
UniProt P62258: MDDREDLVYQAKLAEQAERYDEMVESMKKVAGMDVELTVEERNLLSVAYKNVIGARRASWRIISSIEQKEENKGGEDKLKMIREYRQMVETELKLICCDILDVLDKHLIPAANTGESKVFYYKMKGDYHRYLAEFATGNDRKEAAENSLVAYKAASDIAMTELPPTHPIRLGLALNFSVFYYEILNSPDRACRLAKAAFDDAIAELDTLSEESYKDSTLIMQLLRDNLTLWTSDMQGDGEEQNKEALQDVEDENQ
UniProt P63104: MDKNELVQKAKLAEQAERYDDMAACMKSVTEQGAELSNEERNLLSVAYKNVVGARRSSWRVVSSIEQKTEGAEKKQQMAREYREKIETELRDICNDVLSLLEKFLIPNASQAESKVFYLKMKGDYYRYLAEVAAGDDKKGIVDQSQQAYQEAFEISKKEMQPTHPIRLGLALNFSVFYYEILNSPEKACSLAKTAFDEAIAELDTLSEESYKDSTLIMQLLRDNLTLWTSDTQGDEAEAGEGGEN
UniProt P00441: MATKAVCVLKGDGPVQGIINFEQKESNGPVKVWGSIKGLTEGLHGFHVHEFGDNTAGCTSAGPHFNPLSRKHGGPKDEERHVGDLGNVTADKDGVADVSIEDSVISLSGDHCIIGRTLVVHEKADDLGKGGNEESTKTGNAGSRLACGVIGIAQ

[4] = target: T2, ATPG tagged with F2 at the N-terminus (negative control protein) (UniProt P36542); assay: as above
T2 sequence: T1 sequence

[5] = target: SOD1-His (not stated (human or mouse cDNA cloned)) (UniProt P00441); assay: pull-down; purified SOD1-His (100 μg) held by anti-SOD1 antibody on agarose beads G, purified YWHAZ-His (100 μg) added, 4 °C, 1 h, 20 mM Tris pH 8.0, 300 mM NaCl, 2 mM β-mercaptoethanol, 1 mM PMSF; eluates blotted with anti-His antibody; both purified
[6] = target: WT-SOD1-F1N (human copper-zinc superoxide dismutase 1 with YFP fragment F1 at the N-terminus) (human) (UniProt P00441); assay: co-IP; HepG2 cells transfected with WT-SOD1-F1N, SOD1-H46R-F1N, SOD1-G93A-F1N or F1N vector for 72 h; lysate (1 mg protein) precipitated with SOD1 antibody and Protein A magnetic beads; blots for SOD1, YWHAE and YWHAZ

Row | Substance | binding [3] | binding [4] | binding [6] | other results
1 | SOD1-His (from UniProt P00441 1-154) (enzyme) |  |  |  | binding [1]: binds; binding [2]: binds
2 | WT-SOD1-F1C (human copper-zinc superoxide dismutase 1 with YFP fragment F1 at the C-terminus) (from UniProt P00441 1-154) (enzyme) | no binding | no binding |  | 
3 | WT-SOD1-F1N (human copper-zinc superoxide dismutase 1 with YFP fragment F1 at the N-terminus) (from UniProt P00441 1-154) (enzyme) | no binding | no binding |  | 
4 | YWHAZ-His (from UniProt P63104 1-245) |  |  |  | binding [5]: binds
5 | endogenous YWHAE of HepG2 cells (from UniProt P62258 1-255) |  |  | binds | 
6 | endogenous YWHAZ of HepG2 cells (from UniProt P63104 1-245) |  |  | binds | 

— PMC9966940
